Assay results published in PubChem BioAssay (NCATS).
This list was built around the results that the source calls inconclusive (neither active nor inactive); the mix of calls is not that of the screen. Potencies of inconclusive entries are left out as doubtful fits. Active and inactive are the calls of the source. The call rests on the fitted dose curve; in most records, active means well fitted curve in the direction sought with a large enough effect; inconclusive means small, poorly fitted or top-dose-only effect, or another doubt; inactive means no such curve, though single readings can be large; an effect the other way counts as inactive or inconclusive.

Tests used:
[1] = tested on: Zika virus NS2B-NS3 protease; experiment: Primary screen GU AMC qHTS for Zika virus inhibitors (AID 1347154); further: nearly all actives have a fitted effect of over 70% in size
How it was run: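 Fluorogenic AMC-substrate cleavage by noncovalent NS2B-NS3 protease complex (25 nM, pH 8.0 Tris buffer with Tween 20) followed for 15 minutes at room temperature (~20% conversion). Percent inhibition from ex340/em450 signal change, fitted by 4-parameter Hill equation.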

[2] = Primary qHTS for small molecule stabilizers of the endoplasmic reticulum resident proteome: Secreted ER Calcium Modulated Protein (SERCaMP) assay (AID 1508630); conditions: SH-SY5Y GLuc-SERCaMP (Gaussia luciferase released on ER calcium loss) secretion, thapsigargin, luminescence; series mostly up to 38.4 µM
How it was run: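 GLuc-SERCaMP-expressing SH-SY5Y cells, pretreated 16 h with compound, are challenged with thapsigargin to empty ER calcium stores; after 4 h, coelenterazine is added directly to the medium and luminescence is imaged.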

MKL-2 = experiment: qHTS assay to identify novel small-molecules to repurpose for Merkel cell carcinoma treatment (AID 1296009); conditions: MCC and control cell lines, CellTiter-Glo viability, 72 h; activity change, negative = cytotoxicity: at 46 µM (top of the series); further: nearly all actives have a fitted effect of over 60% in size
How it was run: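 After compound transfer in DMSO, plates were kept 72 hr at 37 degree celsius. Luminescent ATP signal from CellTiter-Glo served as viability measure, normalized against DMSO and no-cell controls.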

[3] = Drug repurposing screens with cells derived from glioblastoma tumor samples (AID 1345199); conditions: GBM patient neurospheres viability, ATP luminescence, 48 h; Potency: tumour line A unless noted; series mostly up to 46 µM; further: nearly all actives have a fitted effect of over 40% in size
How it was run: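 Four patient lines of CD133+ GBM neurospheres were screened at several concentrations; hits were retested in those lines plus three slower-growing GBM lines, using 48-hour treatment and ATP-based viability.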

[4] = qHTS of pediatric cancer cell lines to identify multiple opportunities for drug repurposing: Primary screen for BT-37 cells (AID 1347094)
How it was run: (§1)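 Viability was measured as metabolically active cells after 48 hours of treatment, read by CellTiter-Glo luminescence. Compounds were tested at multiple final concentrations, giving concentration-response curves.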

[5] = qHTS of pediatric cancer cell lines to identify multiple opportunities for drug repurposing: Primary screen for NB-EBc1 cells (AID 1347095)
How it was run: as §1

[6] = qHTS of pediatric cancer cell lines to identify multiple opportunities for drug repurposing: Primary screen for BT-12 cells (AID 1347101); further: nearly all actives have a fitted effect of over 25% in size
How it was run: (§2)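 Cells (500-1,000/well) rested 5 h, then received compounds for 48 h; metabolically active cells were measured by CellTiter-Glo luminescence. Final concentrations spanned up to 46 µM (MIPE, 11-point) or 0.59 nM-46 µM (NPC, 8-point) in primary screens, 11-point in follow-ups.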

[7] = qHTS of pediatric cancer cell lines to identify multiple opportunities for drug repurposing: Primary screen for MG 63 (6-TG R) cells (AID 1347105); conditions: MG 63 (6-TG R) viability, CellTiter-Glo, 48 h; activity change, negative = cytotoxic: at 46 µM (top of the series) unless noted; further: nearly all actives have a fitted effect of over 50% in size
How it was run: as §1

[8] = qHTS of pediatric cancer cell lines to identify multiple opportunities for drug repurposing: Primary screen for Rh30 cells (AID 1347107); further: nearly all actives have a fitted effect of over 75% in size
How it was run: as §2

JEG-3 = experiment: Primary qHTS to identify gynecologic anti-cancer compounds using libraries of approved drugs and bioactive compounds (AID 1345084); conditions: Gynecologic cancer cell panel viability, ATPlite luminescence, 48 h; series mostly up to 57.5 µM; further: nearly all actives have a fitted effect of over 55% in size
How it was run: (§3)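 Measured: luminescence after ATPlite addition (15 min, RT). Exposure: 48 h, 37 C, 5% CO2.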

[9] = tested on: Zika virus NS2B-NS3 protease (linked construct); experiment: Primary screen NINDS Rhodamine qHTS for Zika virus inhibitors (AID 1347160); further: nearly all actives have a fitted effect of over 55% in size
How it was run: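 Purified linked NS2B-NS3 protease (NS2B hydrophilic domain joined to NS3 protease by flexible linker), 25 nM in 10 mM Tris-HCl pH 8.0, 0.01% Tween 20. Compounds titrated, 15 min preincubation at room temperature; 1.5 microM Rhodamine110 substrate, FITC fluorescence change over 15 min.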

C33A = experiment: Primary qHTS to identify gynecologic anti-cancer compounds using libraries of approved drugs and bioactive compounds (AID 1345084); conditions: Gynecologic cancer cell panel viability, ATPlite luminescence, 48 h; series mostly up to 57.5 µM; further: nearly all actives have a fitted effect of over 55% in size
How it was run: as §3

CASKI = experiment: as above; conditions: Gynecologic cancer cell panel viability, ATPlite luminescence, 48 h; activity change, negative = cytotoxicity: at 57.5 µM (top of the series)
How it was run: as §3

Tov112D = experiment: as above; conditions: Gynecologic cancer cell panel viability, ATPlite luminescence, 48 h; activity change, negative = cytotoxicity: at 57.5 µM (top of the series)
How it was run: as §3
Potency means the concentration at half of the fitted maximal effect; tags describe the fitted curve by direction and shape.

In the case of `CCOC(=O)COc1ccc2c(C)c(CCN(CC)CC)c(=O)oc2c1Cl`, the Potency [1] is reported as inconclusive [inhibitor, partial curve], the Potency [2] is reported as inconclusive [inhibitor, full curve, poor fit] and the Potency (MKL-2) is reported as inconclusive [inhibitor, single point]. For the same molecule, the Potency [3] was active: 11.2 µM.
With `CC1=C(C(=O)OC(C)C)C(c2cccc([N+](=O)[O-])c2)C(C(=O)OC2CN(C(c3ccccc3)c3ccccc3)C2)=C(N)N1` (stereo not drawn) the Potency [4] was inconclusive [cytotoxic, single point], the Potency [5] was inconclusive [cytotoxic, single point] and the Potency [6] was inconclusive [cytotoxic, single point]. The Potency [7] was inconclusive [cytotoxic, single point], the Potency [8] was inconclusive [cytotoxic, single point] and the Potency [1] was inconclusive [inhibitor, partial curve]. For the same molecule, the Potency [2] was inconclusive [inhibitor, partial curve, poor fit], the Potency (MKL-2) was active: 16.8 µM and the Potency (JEG-3) was “inactive”.
For `CCN(CC)C(=O)Nc1ccc(OCC(O)CNC(C)(C)C)c(C(C)=O)c1` (stereo not drawn), the Potency [3] was inconclusive [inhibitor, partial curve, poor fit].
For `CC1=CC(=O)CC(C)(C)[C@H]1/C=C/C(CO)O[C@@H]1O[C@H](CO)[C@@H](O)[C@H](O)[C@H]1O` (stereo partly drawn), the Potency [9] was inconclusive [inhibitor, single point].
With `O=C(CCCN1CC=C(n2c(=O)[nH]c3ccccc32)CC1)c1ccc(F)cc1` the Potency [4] was inconclusive [cytotoxic, partial curve, poor fit], the Potency [6] was inconclusive [cytotoxic, partial curve] and the Potency [8] was inconclusive [cytotoxic, partial curve]. For the same molecule, the Potency [2] was active: 25.1 µM, the Potency (C33A) was inconclusive [cytotoxic, single point] and the Potency (CASKI) was inconclusive [cytotoxic, single point]. The Potency (JEG-3) was inconclusive [cytotoxic, single point], the Potency (Tov112D) was inconclusive [cytotoxic, single point] and the Potency [3] was active: 10 µM.
In the case of `O=C(NCc1ccccc1)c1ccc2c(=O)n(-c3cccc(C(F)(F)F)c3)c(=S)[nH]c2c1`, the Potency (C33A) is reported as “inactive”.
For `Cc1cc(N)c2ccccc2[n+]1CCCCCCCCCC[n+]1c(C)cc(N)c2ccccc21`, the Potency [1] was inconclusive [inhibitor, single point], the Potency (CASKI) was inconclusive [cytotoxic, single point] and the Potency (JEG-3) was “inactive”.
